This note sets out measurements from the supplement of paper PMC11417369.

± gives the standard deviation of the averaged measurements. The list shows a part of the results.

For the experiment, the system named is PfAP2-G AP2 domain (GST-tagged). Kind of experiment: gcPBM binding intensity (ln(normalized median fluorescence intensity)); higher = stronger DNA binding. The procedure, abridged:
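Binding intensity is the highest Masliner-normalised natural-log median intensity over replicate spots in either probe orientation. To obtain it, GST-tagged P. falciparum DNA-binding domains made in E. coli were incubated for 1 h on an Agilent 4 × 180k array of primer-extended double-stranded 36-bp intergenic genomic probes plus negative controls. Detection used Alexa488 anti-GST antibody with scanning at 488 nm.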
In the case of “TATTTATATAGACACACACACATATATTTATATTTT [CACACA_site7240]”, the “gcPBM binding intensity (ln)” value was determined as 10.1 ± 0.11. As for “ATTATATATATATATAGTACTTTTTTTTTTTTTTTT [XGTACX_site8801]”, the figure is 11.4 ± 0.71; as for “AAAAAAAATATATATATTAAAGTTTTAATTTTTATA [CACACA_negctrl_site497]”, 9.47 ± 0.11; as for “TTAGAATTTAGAGAAGTGCATATTAAGTTACGAATT [GTGCAC_site9861]”, 10.06 ± 0.099. On to “TTGCCTGACTTGTTCACACATATTTATGATATACAT [CACACA_site5783]”, for which the “gcPBM binding intensity (ln)” value came to 10.06 ± 0.021.

For the sequence “TTTTCTTGGTATATGATTTATCCTAAATAAGTAAAT [CACACA_negctrl_site294]”, the “gcPBM binding intensity (ln)” value is 9.89 ± 0.13. As to “TTATTGGTTATATAAAGTACATTTGAAATATAATTG [XGTACX_site6553]”, the “gcPBM binding intensity (ln)” value was found to be 11.1 ± 0.79.

On to “ATAATAATTTTATGCACACAGAAAAATACAAGGTTA [CACACA_site3510]”, for which the “gcPBM binding intensity (ln)” value stood at 10.3 ± 0.34. The result for “TGGGTGGTAAAAATGTGTACATAAAAAAATAATGTT [XGTACX_site2235]” reads 11.6 ± 0.95; that for “TCTCACATTCTTATGGGTACACATGAGAAATTATAA [XGTACX_site6799]”, 11.4 ± 0.93; that for “ATATTATTATAAAGTGGTACAATAAATGGTATTATA [XGTACX_site391]”, 11.5 ± 0.96. Take “TGTATTATAATATTATGTACTTATAAATTTTATATT [XGTACX_site6432]”: the “gcPBM binding intensity (ln)” value stood at 11.3 ± 0.83. The result for “AATTTAAAGTTTTTTTTTTTTTTTTTTTTTTTTTTG [CACACA_negctrl_site1082]” reads 9.545 ± 0.078; that for “AAAAGGAATGAAAATTCACACAACTATAAATACATA [CACACA_site5337]”, 9.78 ± 0.14; that for “GTTACACCAACAAACACACACACACCCACCCACAAA [CACACA_site2427]”, 10.4 ± 0.29.

“AATATACACCCGTGTACACAAATATTTACAAAACGT [CACACA_site4786]”: the “gcPBM binding intensity (ln)” value amounted to 11.7 ± 1.1. Take “TTCTATTTGTAAAATTGTACAAAATAAATAACAAAA [XGTACX_site1007]”: the “gcPBM binding intensity (ln)” value is 10.8 ± 0.51.

Take “TAATAATAGTACTCACATCAAAGTATTATTAAAAAT [TGCATGCA_negctrl_site496]”: the “gcPBM binding intensity (ln)” value was found to be 11.2 ± 0.98. “GCATTTCTACTAAAAATACACACGATGATACAACGA [CACACA_site1756]”: the “gcPBM binding intensity (ln)” value came out at 10.1 ± 0.32. “GGGAAGTAGTAGTAATGTACTTATTTATTATGTGAC [XGTACX_site3985]”: the “gcPBM binding intensity (ln)” value was 11.3 ± 0.83. For “TTATATATTTTTTGCACACCAAAAAAGAGAATATTC [CACACA_site2730]”, the “gcPBM binding intensity (ln)” value was 10.4 ± 0.42.

As for “CTTATTTCCTTTTGTAGTACCTTATAATATATATAA [XGTACX_site8873]”, the “gcPBM binding intensity (ln)” value was found to be 11.3 ± 0.69.

Take “TATATATATATATGTTGTACATATTTAAATGTTTAT [XGTACX_site5437]”: the “gcPBM binding intensity (ln)” value stood at 11.3 ± 0.93.

“ATATATATATATATGTGTACATAATAACTTTGCTTA [XGTACX_site1255]”: the “gcPBM binding intensity (ln)” value is 11.5 ± 0.86.

In the case of “ACCTATTTCAAACACACACACACACTAGCAAACATA [CACACA_site4695]”, the “gcPBM binding intensity (ln)” value is 10.2 ± 0.27.

Take “TATAAATATAAATACACACACATATATATTATATAT [CACACA_site4496]”: the “gcPBM binding intensity (ln)” value is 9.875 ± 0.021. For “TAAAAAATGTTATATACACACAGTATAAAAAAAAAT [CACACA_site7808]”, the “gcPBM binding intensity (ln)” value turned out to be 9.955 ± 0.092. In the case of “AATTAAATTATAAGCACACACATATATATATATATA [CACACA_site3351]”, the “gcPBM binding intensity (ln)” value is 10.1 ± 0.28. Regarding “CCACGTATAATATGTACACACACATAAATACAAAAA [CACACA_site4660]”, the “gcPBM binding intensity (ln)” value turned out to be 11.4 ± 0.9. The result for “ACACATATGACAAATAGTACATAAATATATAAATAT [XGTACX_site7141]” reads 11.1 ± 0.88.

For “TAAACAGATATATTTTGTACATATTGTATATTTTGT [XGTACX_site713]”, the “gcPBM binding intensity (ln)” value came out at 10.6 ± 0.28.

With “AATATTCACATTTGTTGTACATTCCTAGTTATATAA [XGTACX_site491]”, the “gcPBM binding intensity (ln)” value came out at 11.2 ± 0.69. Take “TAAATATATAATTGTAGTACTGTTTTATGTTCATAA [XGTACX_site1020]”: the “gcPBM binding intensity (ln)” value was determined as 11.2 ± 0.47. As for “AAAAAATTTCAAATAACACACACTAATATATATATG [CACACA_site1426]”, the figure is 9.95 ± 0.11. Take “ACAAAAAAGTAAAAAGTGCATGTAAAATATAAGTAT [GTGCAC_site9438]”: the “gcPBM binding intensity (ln)” value was determined as 10.2 ± 0.028. Take “CGAAAGAAAAAAAGCACACACAGTTTTGAGCAATGA [CACACA_site2109]”: the “gcPBM binding intensity (ln)” value worked out at 9.935 ± 0.092. The result for “TTAATATATTATATTTGTACATATATATATATACAA [XGTACX_site4798]” reads 10.9 ± 0.62.

In the case of “AAATTGTGTTCATCAGCACACACAACATCATGTAAT [CACACA_site8556]”, the “gcPBM binding intensity (ln)” value amounted to 10.1 ± 0.12. Take “AATAAATCTTTTTGTTGTACTAAAAATATTATTAGC [XGTACX_site3335]”: the “gcPBM binding intensity (ln)” value came to 11.3 ± 0.65. “TTATGATGGTCTTTATAAGGGCACATTAAATTCGGC [TGCATGCA_negctrl_site166]”: the “gcPBM binding intensity (ln)” value was 10.6 ± 0.42.

In the case of “AAACTATTCACTATAATACATTAGAAGTGAATAAAA [TGCATGCA_negctrl_site498]”, the “gcPBM binding intensity (ln)” value amounted to 9.66 ± 0.13. The result for “ATACATCAAGGACACACACACACACGCACACGCACA [CACACA_site6310]” reads 11 ± 0.6; that for “TTTTTATAAAAAAATAGTACTCGTCTAATCTTATGT [XGTACX_site8532]”, 11.3 ± 0.78.

As for “TATATATAAATATTCAGTACATAGTGCTATTAAGTG [XGTACX_site1979]”, the “gcPBM binding intensity (ln)” value was 10.8 ± 0.47.
